PubChem BioAssay AID2451 (National Center for Advancing Translational Sciences (NCATS), 2010)
“And” between values parts separate entries of the source, which are not always exact repeats. Identical values can stand only once. In all, about 290,000 compounds went through this assay and about 2,100 (0.72%) were called active. The shares of active, inactive and inconclusive entries below differ from those in the screen. Calls come from the whole dose curve; as a rule, active = well fitted inhibition curve with a large enough effect; inconclusive = small, poorly fitted or top-dose-only effect, or effect the other way; inactive = flat fitted curve, though single readings scatter. Potencies of inconclusive entries are doubtful fits and often do not repeat.
% is set by controls: 0 for no effect and ±100 for the full control effect; potency is the fitted concentration of half-maximal effect; tags give direction and shape of the fitted curve.
Note: nearly all actives have a fitted effect of over 55% in size.

Each molecule was assayed against Fructose-bisphosphate aldolase (Giardia intestinalis (strain ATCC 50803 / WB clone C6)) (UniProt A8B2U2) (assay: qHTS Assay for Inhibitors of Fructose-1,6-bisphosphate Aldolase from Giardia Lamblia). Details: purified Giardia FBPA; activity, negative = inhibition: at 59.6 µM (top of the series) unless noted.
Sequence of UniProt A8B2U2 (A8B2U2 whole entry, looked up): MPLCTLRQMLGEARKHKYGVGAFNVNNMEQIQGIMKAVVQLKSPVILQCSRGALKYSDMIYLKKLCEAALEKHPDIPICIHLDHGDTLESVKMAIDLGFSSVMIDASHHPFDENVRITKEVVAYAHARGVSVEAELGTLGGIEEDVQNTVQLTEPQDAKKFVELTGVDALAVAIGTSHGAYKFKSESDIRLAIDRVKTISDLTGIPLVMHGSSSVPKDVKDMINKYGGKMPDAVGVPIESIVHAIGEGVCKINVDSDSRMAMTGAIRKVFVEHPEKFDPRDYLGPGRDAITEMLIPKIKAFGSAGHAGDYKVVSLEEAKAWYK
Outline: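 40 nM FBPA preincubated 10 min at RT with compound (up to 57.5 uM final), then substrate plus GAPDH/TPI/NAD/arsenate coupling and diaphorase/resazurin added. Fluorescence read after 20 min at RT, 525/598 nm.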
With `COC(=O)c1[nH]c2cccc(C)c2c1NC(=O)CN1CCN(c2ccccc2OC)CC1` the Potency was “inactive”. With `O=c1cc(CO)oc(C(Nc2ccccn2)c2ccsc2)c1O` (stereo not drawn) the Potency was inconclusive: 14.1 µM [inhibitor, partial curve]. For `CCn1ccnc1CNCc1ccc(OCC(O)CN(C)Cc2ccccc2)cc1` (stereo not drawn), the Potency was inconclusive: 17.7 µM [inhibitor, single point]. With `S=C(Nc1ccc(N2CCOCC2)cc1)Nc1ccc2nc(-c3ccco3)c(-c3ccco3)nc2c1` the Potency was inconclusive: 0.561 µM [inhibitor, full curve]. `CN(C)P(=NC(=S)c1cccn1C)(N(C)C)N(C)C` was tested, and the Potency was inconclusive: 14.1 µM [inhibitor, partial curve]. With `CCN(CC)c1ccc2cc(/C(N)=N/NC(=O)c3cccs3)c(=O)oc2c1` the Potency was “inactive”. In the case of `COc1cc(NC(=S)NCCc2ccc(S(N)(=O)=O)cc2)c(OC)cc1Cl`, the Potency is reported as inconclusive: 25.1 µM [inhibitor, single point]. In the case of `CON(C)C(=O)c1nnc2c3ccccc3n(S(=O)(=O)c3ccc(C)cc3)c2n1`, the activity, negative = inhibition is reported as inactive: -1.35% [at 12.9 µM] and inactive: -2.69% [at 12.9 µM]. In the case of `O=C(Nc1ccc(F)c(F)c1)c1oc2ccccc2c1NC(=O)C1CCCO1` (stereo not drawn), the Potency is reported as “inactive”. `CCOC(=O)CN1C(=O)N(CC(=O)OCC)C(c2ccccc2)(c2ccccc2)C1=O` was tested, and the Potency was “inactive”. For `CCOc1ccc(S(=O)(=O)NCc2ccccc2)cc1C(N)=O`, the Potency was inconclusive: 19.9 µM [inhibitor, partial curve]. In the case of `COc1ccccc1NC(=S)N(CCCN1CCOCC1)Cc1ccccn1`, the Potency is reported as inconclusive: 4.46 µM [inhibitor, partial curve]. In the case of `Cc1ccc(OCCCn2ccnc2)c(Br)c1`, the Potency is reported as active: 17.8 µM. In the case of `CC1(OC(=O)c2cccs2)C(=O)C=C2C=C3CCCN3C=C2C1=O` (stereo not drawn), the Potency is reported as inconclusive: 3.54 µM [inhibitor, full curve] and inconclusive: 1.26 µM [inhibitor, partial curve]. For `CCOC(=O)c1c(C)oc2c1c(CN1CCN(C(=O)OCC)CC1)c(O)c1ccccc12`, the Potency was inconclusive: 11.2 µM [inhibitor, partial curve]. In the case of `Oc1ccc(CN2CCc3ccccc3C2)c2cccnc12`, the Potency is reported as inconclusive: 22.4 µM [inhibitor, single point]. In the case of `COCCOC(=O)C(CC(=O)O)NCc1ccco1` (stereo not drawn), the Potency is reported as inconclusive: 9.98 µM [inhibitor, partial curve]. In the case of `COc1ccc(NC(=O)c2csc3c2CCCC3)cc1`, the Potency is reported as “inactive”. For `O=C(Cc1cc(=O)[nH][nH]1)N/N=C/C=C/c1ccccc1`, the Potency was “inactive”. For `CN1CCO/C1=C(\C(Cl)=C(Cl)Cl)[N+](=O)[O-]`, the Potency was active: 17.7 µM. `CN(C)c1ccc(C(=O)NCC2CCCO2)cc1` (stereo not drawn) was tested, and the Potency was “inactive”. For `C=CCNC(=O)c1ccc(N(Cc2ccc(Cl)cc2)S(C)(=O)=O)cc1`, the Potency was “inactive”. In the case of `c1ccc(CSc2nnc(-c3cccnc3)o2)cc1`, the Potency is reported as “inactive”. `COc1cc(NCCCC(C)N)c2ncccc2c1` (stereo not drawn) was tested, and the Potency was inconclusive: 0.792 µM [inhibitor, full curve]. For `O=C1C(Nc2ccccc2)=C(N2CCCCC2)C(=O)c2ccccc21`, the Potency was inconclusive: 0.63 µM [inhibitor, full curve]. With `Cc1ccc(C(=O)Nc2nnc(-c3ccco3)o2)cc1C` the Potency was inconclusive: 19.9 µM [activator, partial curve]. `CC1(C)OC(C)(C)/C(=C/Nc2ccc(O)cc2)C1=O` was tested, and the Potency was active: 2.81 µM. For `CN(C)CCCN(C(=O)C1COc2ccccc2O1)c1nc2cc3c(cc2s1)OCO3` (stereo not drawn), the Potency was “inactive”. In the case of `COc1cc(CNCCCN2CCOCC2)cc(Br)c1OCC(=O)N1CCCCC1`, the Potency is reported as “inactive”. In the case of `O=S1(=O)Nc2c(ccc3cccnc23)-c2ccccc21`, the Potency is reported as inconclusive: 17.7 µM [inhibitor, partial curve] and inconclusive: 22.3 µM [inhibitor, single point]. With `C/C(=N\Nc1ccc([N+](=O)[O-])cc1)c1cccc(N)c1` the Potency was inconclusive: 17.7 µM [inhibitor, single point]. In the case of `COc1ccc(NC(=O)/C(C#N)=C/c2cc(C)n(-c3ccc(N4CCOCC4)c([N+](=O)[O-])c3)c2C)cc1`, the Potency is reported as “inactive”. For `CC1=CC(C)C(C(=O)O)C(C(=O)O)C1` (stereo not drawn), the Potency was “inactive”. In the case of `O=C(COC(=O)c1ccccc1O)Nc1ccc(OC(F)F)cc1`, the Potency is reported as “inactive”. `O=C(Nc1ccc(O)c(-c2nc3ccccc3s2)c1)C1=COCCO1` was tested, and the Potency was “inactive”. In the case of `O=[N+]([O-])c1cccc(NNS(=O)(=O)c2ccccc2F)c1`, the Potency is reported as inconclusive: 8.91 µM [inhibitor, partial curve]. `CCCCC[n+]1ccn(C2=C([O-])c3ccccc3C(=O)/C2=N\S(=O)(=O)c2ccc(Br)cc2)c1` was tested, and the Potency was inconclusive: 0.5 µM [inhibitor, full curve]. In the case of `CC(C)N(C(C)C)S(=O)(=O)c1ccc(NC(=O)c2cnccn2)cc1`, the Potency is reported as “inactive”. `CC1CCCN(C(=O)c2ccc3c(=O)n(C4CCCC4)c(=S)[nH]c3c2)C1` (stereo not drawn) was tested, and the Potency was inconclusive: 5 µM [inhibitor, full curve, poor fit]. `Cc1ccc(S(=O)(=O)N2CCN(C(C)C(=O)Nc3ccccc3-c3ccccc3)CC2)cc1` (stereo not drawn) was tested, and the Potency was “inactive”. In the case of `O=C(Nc1c2ccccc2nc2ccccc12)C(Cl)(Cl)Cl`, the Potency is reported as inconclusive: 15.8 µM [inhibitor, partial curve]. `O=C(Nc1ccccc1)N1CCN(Cc2ccccc2)CC1` was tested, and the Potency was inconclusive: 15.8 µM [inhibitor, single point]. For `Cc1nn(C)c(Cl)c1CN1CCN(CCC(C)C)C(CCO)C1` (stereo not drawn), the Potency was “inactive”. In the case of `COc1ccc(OCc2n[nH]c(=S)n2N)cc1`, the Potency is reported as inconclusive: 11.2 µM [inhibitor, partial curve]. With `C/C(Cn1nc([N+](=O)[O-])cc1C)=N\NC(=O)c1cccc(Br)c1` the Potency was “inactive”. With `O=C1CC(N2CCOCC2)C(=O)N1c1ccc2c(c1)OCO2` (stereo not drawn) the Potency was “inactive”. With `CN(C)CC(=O)N1CCc2ccccc2C1` the Potency was inconclusive: 12.6 µM [inhibitor, partial curve]. `Cc1[nH][nH]c(=O)c1[C@@H](c1ccccc1[N+](=O)[O-])C(C#N)C#N` was tested, and the Potency was inconclusive: 19.9 µM [inhibitor, partial curve]. `CN1CCc2cc3c(c4c2[C@H]1Cc1ccccc1-4)OCO3` was tested, and the Potency was inconclusive: 2.23 µM [inhibitor, full curve]. With `CCOc1ccccc1NC(=O)CCCc1nc2ccccc2c(=O)[nH]1` the Potency was inconclusive: 17.7 µM [inhibitor, partial curve]. For `N#C/C(=C\Nc1ccc2cn[nH]c2c1)c1nc(-c2ccc(Cl)cc2)cs1`, the Potency was inconclusive: 17.7 µM [inhibitor, partial curve]. With `CCOc1cc(CNCc2cccnc2)cc(Br)c1OCC(N)=O` the Potency was inconclusive: 12.6 µM [inhibitor, partial curve]. With `O=C1NC(=S)NC(=O)C12C(c1ccc(F)cc1)NC(=S)NC2c1ccc(F)cc1` (stereo not drawn) the Potency was inconclusive: 19.9 µM [inhibitor, single point]. For `COC(=O)c1cccnc1NC(=S)NNC(=O)c1ccccc1`, the Potency was inconclusive: 9.98 µM [inhibitor, partial curve]. `O=C(O)c1ccccc1/C=N/NC(=O)c1cc(-c2ccco2)nc2ccccc12` was tested, and the Potency was inconclusive: 15.8 µM [inhibitor, single point]. `O=C(O)c1cc(N/N=C/c2c(O)ccc3ccccc23)ccc1Cl` was tested, and the Potency was inconclusive: 17.8 µM [inhibitor, single point]. `COCc1cc(C)c(C#N)c(=S)[nH]1` was tested, and the Potency was inconclusive: 14.1 µM [inhibitor, partial curve]. In the case of `O=C(Nc1nnc(C2=COCCO2)o1)C1CCCCC1`, the Potency is reported as inconclusive: 31.5 µM [inhibitor, single point]. `COc1cc(/C=N/NC(=S)NCCN2CCOCC2)cc(OC)c1OC` was tested, and the Potency was inconclusive: 15.8 µM [inhibitor, single point]. In the case of `O=C(NNC(=S)Nc1cccc(C(F)(F)F)c1)c1ccc(Cl)cc1Cl`, the Potency is reported as inconclusive: 19.9 µM [activator, partial curve]. For `CCN1C(=O)CC(N2CCC(c3nc4ccccc4[nH]3)CC2)C1=O` (stereo not drawn), the Potency was “inactive”. `O=C(O)CSC(=S)N1CCCC1` was tested, and the Potency was “inactive”. `Cc1nc(SCC(O)CO)c([N+](=O)[O-])[nH]1` (stereo not drawn) was tested, and the Potency was inconclusive: 14.1 µM [inhibitor, partial curve]. For `COc1cccc(-c2nc(S(=O)(=O)c3ccccc3)c(N3CCOCC3)o2)c1`, the Potency was inconclusive: 25.1 µM [inhibitor, single point]. For `CC(C)N1CCc2c(sc(NC(=O)Cc3ccccc3)c2C#N)C1`, the Potency was inconclusive: 12.6 µM [inhibitor, partial curve]. With `CCOC(=O)c1ccc(-n2c(CN3CCN(CCO)CC3)nc3ccc([N+](=O)[O-])cc3c2=O)cc1` the Potency was “inactive”. For `CCc1c(C)nc(SCC(=O)N2CCCCC2)[nH]c1=O`, the Potency was inconclusive: 39.8 µM [inhibitor, single point]. `CCN1CCN(C(=O)C2c3cc(OC)c(OC)cc3C(=O)N(C)C2c2ccc(SC)cc2)CC1` (stereo not drawn) was tested, and the Potency was “inactive”. `CCCCn1nnc(NC(=S)NC(=O)c2cccs2)n1` was tested, and the Potency was inconclusive: 1.26 µM [inhibitor, full curve]. `COc1ccccc1NC(=O)C(C)NC(c1ccccc1)c1ccccc1` (stereo not drawn) was tested, and the Potency was “inactive”. With `Cc1ccc2c(c1)c1c(n2CC(O)CNC2CCCC2)CCCC1` (stereo not drawn) the Potency was inconclusive: 19.9 µM [inhibitor, partial curve]. With `O=P(c1ccccc1)(c1ccccc1)C(c1ccccn1)P(=O)(c1ccccc1)c1ccccc1` the Potency was “inactive”. `CC(=O)NC(c1ccc2ccccc2c1)c1ccc2cccnc2c1O` (stereo not drawn) was tested, and the Potency was inconclusive: 17.8 µM [activator, single point].
